Among the data in PubChem BioAssay (NCI) are GI50 and TGI values, retold here.

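Each compound was tested at five concentrations against cells in 96-well plates for 48 hours. Abbreviation: GI50, concentration required for 50% inhibition of growth. TGI denotes the concentration required for complete inhibition of growth.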

The test system of this assay is NCI-H322M lung. Description: NCI-60 cell line screen, 48 h.
Take `COc1cc(/C=C/C(=O)c2ccc(S(=O)(=O)NCCNc3nc(Nc4ccc(F)cc4)nc(N(C)C)n3)cc2)cc(OC)c1OC`: the GI50 is 10.1 µM and the TGI worked out at 43.9 µM.

In the case of `O=C1NC(=NC23CC4CC(CC(C4)C2)C3)N/C1=C\c1ccc2ncccc2c1`, the GI50 was 2.94 µM and the TGI is greater than 100 µM.

Consider `COc1ccc(-c2nc3cc(C)ccc3n2CC(=O)N=Nc2c(O)[nH]c3ccc(Br)cc23)cc1`, for which the GI50 was 2.5 µM and the TGI worked out at 12 µM.
